# Experimental data: patent publication US20100056627A1, “PHARMACEUTICAL COMPOSITIONS OF ALKYL GALLATES” (priority 2006, published 2010)
# Tested on: influenza virus A/Aichi (H3N2)
# Test: Virucidal activity against influenza virus A/Aichi (H3N2) (Table 16)
# Conditions: absence of J1816
structure (smiles),measurement,value
CCCCCCCCOC(=O)c1cc(O)c(O)c(O)c1 [octyl gallate],octyl gallate concentration at which influenza virus completely lost the infectivity to cells,60 mg/L
